# Data published in patent publication EP0745599A2, “1-(3-Heterocyclylphenyl)-s-triazine-2,4,6-oxo or thiotrione herbicidal agents” (American Cyanamid Company, priority 1995, dated 1996).
# The name of at least one read-out is uncertain.
# How the values were obtained:
# Assay type in all cases: in vivo
# Conditions in all cases: rated four to five weeks after treatment
# [1] = test system: TRITICUM AESTIVUM, CV. APOLLO; test: Postemergence herbicidal evaluation, TRZAWO (Wheat, Winter, CV. APOLLO)
# Method in brief: (§1)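 Two-week-old seedlings; spray 40 psi, 0.125–0.500 kg/ha in 50/50 acetone/water, 0.5% TWEEN®20. Greenhouse hold 4–5 wk. Visual 0–9 score (stand, vigor, malformation, size, chlorosis, appearance) vs control; repeats averaged.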
# [2] = test system: ABUTILON THEOPHRASTI, MEDIC.; test: Preemergence herbicidal evaluation, ABUTH (Velvetleaf)
# Description: (§2) Results of herbicide evaluation are expressed on a rating scale (0-9). The scale is based upon a visual observation of plant stand, vigor, malformation, size, chlorosis and overall plant appearance as compared with a control.
# (§3) The preemergence herbicidal activity of the test compounds of the present invention is exemplified by the following tests in which the seeds of a variety of monocotyledonous and dicotyledonous plants are separately mixed with potting soil and planted on top of approximately one inch of soil in separate pint cups. After planting, the cups are sprayed with the selected aqueous acetone solution containing test compound in sufficient quantity to provide the equivalent of about 0.125 to 0.50 kg per hectare of test compound per cup. The treated cups are then placed on greenhouse benches, watered and cared for in accordance with conventional greenhouse procedures. From four to five weeks after treatment, the tests are terminated and each cup is examined and rated according to the rating system provided in Example 42.
# [3] = test system: SETARIA VIRIDIS, (L) BEAU; test: Postemergence herbicidal evaluation, SETVI (Foxtail, Green)
# Method in brief: as §1
# [4] = test system: TRITICUM AESTIVUM, CV. APOLLO; test: Preemergence herbicidal evaluation, TRZAWO (Wheat, Winter, CV. APOLLO)
# Description: as §2, §3
# GALIUM APARINE = test: Postemergence herbicidal evaluation, GALAP (Galium)
# [5] = test system: SETARIA VIRIDIS, (L) BEAU; test: Preemergence herbicidal evaluation, SETVI (Foxtail, Green)
# Description: as §2, §3
# [6] = test system: AMBROSIA ARTEMISIIFOLIA, L.; test: Preemergence herbicidal evaluation, AMBEL (Ragweed, Common)
# Description: as §2, §3
# [7] = test system: ECHINOCHLOA CRUS-GALLI, (L) BEAU; test: Postemergence herbicidal evaluation, ECHCG (Barnyardgrass)
# Method in brief: as §1
# [8] = test system: GLYCINE MAX(L)MERR. CV. WILLIAMS; test: Postemergence herbicidal evaluation, GLXMAW (Soybean, Williams)
# Method in brief: as §1
# IPOMOEA SPP. [9] = test: Postemergence herbicidal evaluation, IPOSS (Morningglory Spp.)
# ZEA MAYS L. = test: Preemergence herbicidal evaluation, ZEAMX (Corn, Field)
# Description: as §2, §3
# IPOMOEA SPP. [10] = test: Preemergence herbicidal evaluation, IPOSS (Morningglory Spp.)
# Description: as §2, §3
# [11] = test system: AMBROSIA ARTEMISIIFOLIA, L.; test: Postemergence herbicidal evaluation, AMBEL (Ragweed, Common)
# Method in brief: as §1
# CHENOPODIUM ALBUM, L. = test: Postemergence herbicidal evaluation, CHEAL (Lambsquarters, Common)
# Method in brief: as §1
# [12] = test system: ORYZA SATIVA, L. TEBONNET; test: Preemergence herbicidal evaluation, ORYSAT (Rice, Tebonnet)
# Description: as §2, §3
# CASSIA OBTUSIFOLIA, L. [13] = test: Postemergence herbicidal evaluation, CASOB (Sicklepod)
# Method in brief: as §1
# CASSIA OBTUSIFOLIA, L. [14] = test: Preemergence herbicidal evaluation, CASOB (Sicklepod)
# Description: as §2, §3
structure (smiles),measurement,setting,value
"CC(C)OC(=O)Cn1c(=O)n(C)c(=O)n(-c2cc(N3C(=O)C4=C(CCCC4)C3=O)c(F)cc2Cl)c1=O [Compound 4, Isopropyl 3-[2-chloro-5-(1-cyclohexene-1,2-dicarboximido)-4-fluorophenyl]tetrahydro-5-methyl-2,4,6-trioxo-s-triazine-1(2H)-acetate]",Herbicide rating (0-9) TRZAWO,[1]; 0.125 kg/ha,4.5
same,Herbicide rating (0-9) TRZAWO,[1]; 0.250 kg/ha,4.5
same,Herbicide rating (0-9) TRZAWO,[1]; 0.500 kg/ha,5.0
same,Herbicide rating (0-9) ABUTH,[2]; 0.125 kg/ha,6.0
same,Herbicide rating (0-9) ABUTH,[2]; 0.250 kg/ha,9.0
same,Herbicide rating (0-9) ABUTH,[2]; 0.500 kg/ha,9.0
same,Herbicide rating (0-9) SETVI,[3]; 0.125 kg/ha,0.0
same,Herbicide rating (0-9) SETVI,[3]; 0.250 kg/ha,1.0
same,Herbicide rating (0-9) SETVI,[3]; 0.500 kg/ha,3.0
same,Herbicide rating (0-9) TRZAWO,[4]; 0.125 kg/ha,2.0
same,Herbicide rating (0-9) TRZAWO,[4]; 0.250 kg/ha,2.0
same,Herbicide rating (0-9) TRZAWO,[4]; 0.500 kg/ha,4.0
same,Herbicide rating (0-9) GALAP,GALIUM APARINE; 0.125 kg/ha,6.0
same,Herbicide rating (0-9) GALAP,GALIUM APARINE; 0.250 kg/ha,7.0
same,Herbicide rating (0-9) GALAP,GALIUM APARINE; 0.500 kg/ha,8.0
same,Herbicide rating (0-9) SETVI,[5]; 0.125 kg/ha,0.0
same,Herbicide rating (0-9) SETVI,[5]; 0.250 kg/ha,2.0
same,Herbicide rating (0-9) SETVI,[5]; 0.500 kg/ha,4.0
same,Herbicide rating (0-9) AMBEL,[6]; 0.125 kg/ha,2.0
same,Herbicide rating (0-9) AMBEL,[6]; 0.250 kg/ha,3.0
same,Herbicide rating (0-9) AMBEL,[6]; 0.500 kg/ha,6.0
same,Herbicide rating (0-9) ECHCG,[7]; 0.125 kg/ha,0.0
same,Herbicide rating (0-9) ECHCG,[7]; 0.250 kg/ha,0.0
same,Herbicide rating (0-9) ECHCG,[7]; 0.500 kg/ha,2.0
same,Herbicide rating (0-9) GLXMAW,[8]; 0.125 kg/ha,5.0
same,Herbicide rating (0-9) GLXMAW,[8]; 0.250 kg/ha,6.0
same,Herbicide rating (0-9) GLXMAW,[8]; 0.500 kg/ha,7.0
same,Herbicide rating (0-9) IPOSS,IPOMOEA SPP. [9]; 0.125 kg/ha,7.0
same,Herbicide rating (0-9) IPOSS,IPOMOEA SPP. [9]; 0.250 kg/ha,8.0
same,Herbicide rating (0-9) IPOSS,IPOMOEA SPP. [9]; 0.500 kg/ha,8.0
same,Herbicide rating (0-9) ZEAMX,ZEA MAYS L.; 0.125 kg/ha,0.0
same,Herbicide rating (0-9) ZEAMX,ZEA MAYS L.; 0.250 kg/ha,3.0
same,Herbicide rating (0-9) ZEAMX,ZEA MAYS L.; 0.500 kg/ha,3.0
same,Herbicide rating (0-9) IPOSS,IPOMOEA SPP. [10]; 0.125 kg/ha,2.0
same,Herbicide rating (0-9) IPOSS,IPOMOEA SPP. [10]; 0.250 kg/ha,3.0
same,Herbicide rating (0-9) IPOSS,IPOMOEA SPP. [10]; 0.500 kg/ha,6.0
same,Herbicide rating (0-9) AMBEL,[11]; 0.125 kg/ha,5.0
same,Herbicide rating (0-9) AMBEL,[11]; 0.250 kg/ha,7.0
same,Herbicide rating (0-9) AMBEL,[11]; 0.500 kg/ha,9.0
same,Herbicide rating (0-9) CHEAL,"CHENOPODIUM ALBUM, L.; 0.125 kg/ha",6.0
same,Herbicide rating (0-9) CHEAL,"CHENOPODIUM ALBUM, L.; 0.250 kg/ha",8.0
same,Herbicide rating (0-9) CHEAL,"CHENOPODIUM ALBUM, L.; 0.500 kg/ha",8.0
same,Herbicide rating (0-9) ORYSAT,[12]; 0.125 kg/ha,1.0
same,Herbicide rating (0-9) ORYSAT,[12]; 0.250 kg/ha,1.0
same,Herbicide rating (0-9) ORYSAT,[12]; 0.500 kg/ha,2.0
same,Herbicide rating (0-9) CASOB,"CASSIA OBTUSIFOLIA, L. [13]; 0.125 kg/ha",7.0
same,Herbicide rating (0-9) CASOB,"CASSIA OBTUSIFOLIA, L. [13]; 0.250 kg/ha",8.0
same,Herbicide rating (0-9) CASOB,"CASSIA OBTUSIFOLIA, L. [13]; 0.500 kg/ha",9.0
same,Herbicide rating (0-9) CASOB,"CASSIA OBTUSIFOLIA, L. [14]; 0.125 kg/ha",0.0
same,Herbicide rating (0-9) CASOB,"CASSIA OBTUSIFOLIA, L. [14]; 0.250 kg/ha",0.0
same,Herbicide rating (0-9) CASOB,"CASSIA OBTUSIFOLIA, L. [14]; 0.500 kg/ha",9.0
